According to the supplement of paper PMC3334620:
In all, about 33,000 sequences were measured (“E-score (-0.5 to 0.5)”: median about -0.016, highest 2% from about 0.31 on). The list shows a part of the results.

What follows are sequences tested against Cst6 (UniProt P40535) (assay: PBM E-score (8-mer binding enrichment) (E-score (-0.5 to 0.5)); higher = stronger / more preferred TF binding; most listed sequences are background and not binding sites). Details: protein concentration: 200 nM; construct: GST-DNA-binding domain.
Outline: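 Full-length yeast transcription factors or their DNA-binding domains, GST-tagged and expressed with PURExpress, were applied at about 100-200 nM to universal all-10-mer Agilent arrays. These arrays had been made double-stranded by primer extension on fresh or once-stripped slides. Detection used fluorescent anti-GST, normalisation used masliner, and E-scores for ungapped eight-base words pooled with reverse complements came from the Universal PBM Analysis Suite.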
AAAATTTC was tested, and the “PBM E-score” value was 0.134. For ACGGGGTG, the “PBM E-score” value was -0.0584. TGAATTAA was tested, and the “PBM E-score” value was 0.27. AGATTGGG was tested, and the “PBM E-score” value was 0.0554. For CCTTCACC, the “PBM E-score” value was -0.212. In the case of AGGAATTC, the “PBM E-score” value is reported as -0.101. With AAAACGCT the “PBM E-score” value was 0.0338. In the case of CAACTATA, the “PBM E-score” value is reported as 0.025. With ACCGTCCA the “PBM E-score” value was -0.185. CGACGGCC was tested, and the “PBM E-score” value was -0.145. For ACGAGCCG, the “PBM E-score” value was 0.127. For ACAAGCTA, the “PBM E-score” value was -0.0918. For GATCGCCC, the “PBM E-score” value was -0.239. With ACTAGGTC the “PBM E-score” value was -0.0271. For CGATTTAC, the “PBM E-score” value was 0.114. For AATGTTTA, the “PBM E-score” value was 0.103. ATTACCCA was tested, and the “PBM E-score” value was 0.0952. With TCTTATCA the “PBM E-score” value was 0.293. In the case of ATTCCATA, the “PBM E-score” value is reported as 0.0886. With AAACTCAG the “PBM E-score” value was 0.0818. CGCCCGAA was tested, and the “PBM E-score” value was -0.287. For CCACCATC, the “PBM E-score” value was -0.28. In the case of CCTCAGTC, the “PBM E-score” value is reported as -0.122. For GATGAAAA, the “PBM E-score” value was 0.164. For CTTCAACA, the “PBM E-score” value was 0.105. AAATGCTC was tested, and the “PBM E-score” value was -0.0632. With CTTCTTAA the “PBM E-score” value was 0.1. AGGGCGCG was tested, and the “PBM E-score” value was 0.00972. In the case of AGCAATTC, the “PBM E-score” value is reported as 0.0696. In the case of TGGGCTAA, the “PBM E-score” value is reported as -0.157. With AACGGTCG the “PBM E-score” value was 0.009. CCTCGGCG was tested, and the “PBM E-score” value was 0.124. With AGGAGCCC the “PBM E-score” value was -0.25. In the case of AAGTCGAC, the “PBM E-score” value is reported as -0.031. With AAAACACA the “PBM E-score” value was 0.0725. For AAAAAAAG, the “PBM E-score” value was 0.211. For GAAAGTTA, the “PBM E-score” value was 0.141. For GCCCTAGA, the “PBM E-score” value was -0.203. CATGAGCG was tested, and the “PBM E-score” value was 0.0642. For GACCTATC, the “PBM E-score” value was -0.134. AATAAACT was tested, and the “PBM E-score” value was 0.0876. With AAGCACGC the “PBM E-score” value was 0.0996. With ATGAGTAG the “PBM E-score” value was 0.131. For CGAGACAG, the “PBM E-score” value was 0.0363. With ACGTTGTC the “PBM E-score” value was -0.0147. For ACCAGGCT, the “PBM E-score” value was -0.224. GGTTGGAA was tested, and the “PBM E-score” value was -0.101. For TGCCCACA, the “PBM E-score” value was -0.195. For GCCCCGTA, the “PBM E-score” value was -0.094. GGCCACTA was tested, and the “PBM E-score” value was -0.0437. For CAACCCAA, the “PBM E-score” value was 0.0111. With TCCTACAA the “PBM E-score” value was 0.0486. For AGTCGCAG, the “PBM E-score” value was -0.192. With CGTACAAC the “PBM E-score” value was 0.0177. In the case of ATGCACGC, the “PBM E-score” value is reported as 0.0803. CAAGAAAC was tested, and the “PBM E-score” value was 0.121. CGGTGTTA was tested, and the “PBM E-score” value was -0.168. In the case of ATGCGGGC, the “PBM E-score” value is reported as -0.0464. In the case of ACATCAGT, the “PBM E-score” value is reported as 0.218. For GTCCTGCA, the “PBM E-score” value was -0.226. In the case of ACATTTCG, the “PBM E-score” value is reported as -0.0133. In the case of ATGGTCCG, the “PBM E-score” value is reported as 0.00983. In the case of CCCCCCGA, the “PBM E-score” value is reported as -0.427. For AAGAGCGA, the “PBM E-score” value was -0.17. In the case of GAAACTCA, the “PBM E-score” value is reported as 0.15. In the case of GCAATCCA, the “PBM E-score” value is reported as 0.0451. With GTCATGAC the “PBM E-score” value was 0.374. In the case of ACCAAATG, the “PBM E-score” value is reported as -0.0331. For CGAAACAA, the “PBM E-score” value was 0.16. In the case of ACCCTAGT, the “PBM E-score” value is reported as -0.24. GGGGTGCA was tested, and the “PBM E-score” value was -0.161. With CGACTGCG the “PBM E-score” value was -0.127. With ACCATATA the “PBM E-score” value was 0.272. For CGGATAAG, the “PBM E-score” value was -0.118. With CGTGGCCC the “PBM E-score” value was -0.282. AATCTCGA was tested, and the “PBM E-score” value was 0.045. For TTCAGCAA, the “PBM E-score” value was 0.195. For ACAACCGC, the “PBM E-score” value was 0.159. In the case of TATCGGCA, the “PBM E-score” value is reported as 0.032. CCCCAATC was tested, and the “PBM E-score” value was -0.17. For ACTCGGAA, the “PBM E-score” value was -0.0503. In the case of CGGGAGTA, the “PBM E-score” value is reported as -0.124. With GCAACAGC the “PBM E-score” value was -0.0327. With GGGCCCAC the “PBM E-score” value was -0.291. For ACCGCTCA, the “PBM E-score” value was 0.141. In the case of ATTTCGAC, the “PBM E-score” value is reported as 0.0504. AATTTGAT was tested, and the “PBM E-score” value was 0.131. In the case of CGTCGCTC, the “PBM E-score” value is reported as -0.0591. In the case of TAGCGAAA, the “PBM E-score” value is reported as 0.0411. In the case of TAGCTACA, the “PBM E-score” value is reported as 0.0398. ACAGCTGT was tested, and the “PBM E-score” value was -0.154. In the case of TCGGCCGA, the “PBM E-score” value is reported as -0.0507. ATCAAAGC was tested, and the “PBM E-score” value was -0.0365. For ATGTGATG, the “PBM E-score” value was 0.0899. For TCACCGGA, the “PBM E-score” value was 0.223. For GGAGAAAC, the “PBM E-score” value was -0.164. For CGCGGCGC, the “PBM E-score” value was 0.372. ACATAGAT was tested, and the “PBM E-score” value was 0.0936. In the case of CAAGAGAC, the “PBM E-score” value is reported as -0.257. ATCGCTGA was tested, and the “PBM E-score” value was 0.00583. CCCCACAC was tested, and the “PBM E-score” value was -0.209. With CCCCTTTC the “PBM E-score” value was -0.315. In the case of AAAGTGCA, the “PBM E-score” value is reported as 0.0552. In the case of ACCCATAC, the “PBM E-score” value is reported as 0.0331. For ACTGCCCT, the “PBM E-score” value was -0.142. For AAAAAGGC, the “PBM E-score” value was 0.0954. CAAACGGA was tested, and the “PBM E-score” value was -0.0075. In the case of ACACTGCG, the “PBM E-score” value is reported as 0.0396. CTACCTCC was tested, and the “PBM E-score” value was -0.317. AAGGAGGG was tested, and the “PBM E-score” value was -0.0908.
